Results: PMC4336329 (PLoS ONE, 2015)
Hit rate of the full screen: of about 310,000 compounds, about 2,200 (0.71%) showed an effect of 50% or more. The effect is printed as a negative number. This is one part of the list.

Each compound was assayed against human ether-à-go-go-related gene (hERG) potassium channel (human, UniProt Q12809) (assay: primary screen, population patch clamp on CHO cells stably expressing hERG).
Sequence of human ether-à-go-go-related gene (hERG) potassium channel (Q12809 whole entry, looked up): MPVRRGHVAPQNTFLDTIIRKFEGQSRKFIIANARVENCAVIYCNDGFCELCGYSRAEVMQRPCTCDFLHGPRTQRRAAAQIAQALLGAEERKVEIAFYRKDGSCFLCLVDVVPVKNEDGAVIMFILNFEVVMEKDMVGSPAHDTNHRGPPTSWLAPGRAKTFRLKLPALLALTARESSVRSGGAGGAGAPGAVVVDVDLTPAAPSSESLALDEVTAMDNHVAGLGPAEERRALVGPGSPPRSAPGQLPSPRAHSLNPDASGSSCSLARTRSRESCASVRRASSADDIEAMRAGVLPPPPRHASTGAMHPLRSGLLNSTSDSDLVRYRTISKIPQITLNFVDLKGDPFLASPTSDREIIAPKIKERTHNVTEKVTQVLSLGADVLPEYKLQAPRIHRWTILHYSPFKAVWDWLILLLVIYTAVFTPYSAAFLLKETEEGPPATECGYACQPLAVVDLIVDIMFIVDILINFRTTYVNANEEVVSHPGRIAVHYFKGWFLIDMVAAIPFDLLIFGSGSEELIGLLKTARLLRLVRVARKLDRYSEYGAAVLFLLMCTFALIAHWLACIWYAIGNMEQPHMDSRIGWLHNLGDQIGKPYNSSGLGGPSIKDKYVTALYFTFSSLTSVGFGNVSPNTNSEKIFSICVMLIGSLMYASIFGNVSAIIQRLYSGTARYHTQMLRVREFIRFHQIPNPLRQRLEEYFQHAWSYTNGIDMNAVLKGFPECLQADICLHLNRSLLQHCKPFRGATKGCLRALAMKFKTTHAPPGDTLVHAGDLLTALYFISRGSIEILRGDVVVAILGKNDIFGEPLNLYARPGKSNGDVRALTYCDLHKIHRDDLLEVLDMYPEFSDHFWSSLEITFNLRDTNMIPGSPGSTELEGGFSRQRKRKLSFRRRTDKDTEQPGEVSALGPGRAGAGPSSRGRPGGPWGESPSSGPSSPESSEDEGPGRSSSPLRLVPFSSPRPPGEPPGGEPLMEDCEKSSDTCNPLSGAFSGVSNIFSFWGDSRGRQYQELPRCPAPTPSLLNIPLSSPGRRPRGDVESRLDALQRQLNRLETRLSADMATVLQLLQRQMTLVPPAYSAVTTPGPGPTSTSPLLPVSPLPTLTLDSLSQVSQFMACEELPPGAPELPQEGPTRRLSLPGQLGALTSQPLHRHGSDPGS

Structure (SMILES) | hERG current change (%, negative = inhibition) at 1uM [%]
Cc1ccc(/C=C(/NC(=O)c2ccccc2)C(=O)NCCc2c[nH]c3ccccc23)o1 | -0.241
CCN(CC)CC(O)Cn1c(-c2cccc(Cl)c2)nc2cc(C)c(C)cc21 (centres unmarked) | -26.6
Cc1nc2cc(Cl)ccc2n1CCO | 0.961
O=C(NNC(=S)NC(=O)c1ccco1)c1ccc(F)cc1 | 13.5
COc1ccc2ccc(O)c(CN3CCN(S(=O)(=O)c4cccc(C(F)(F)F)c4)CC3)c2c1 | 9.77
Cc1ccc(-n2cc(CNC(C)c3cnn(C)c3C)c(-c3ccc(F)cc3)n2)cc1 (centres unmarked) | 2.45
Cc1ccccc1NC(=O)C[n+]1cc(-c2ccccc2)n2c1CCC2.[Cl-] | 15.6
CCCCC(=O)N/N=C/c1sccc1C | 8.42
CCOc1ccc(NC(=O)c2cc(Cl)nc3ccccc23)cc1 | 11.4
CC(C)(C)c1ccc(NC(=O)N2CCCN(c3c(Cl)cncc3Cl)CC2)cc1 | 13.6
COc1ccccc1N1CC(C(=O)Nc2nnc(SCc3cccnc3)s2)CC1=O (centres unmarked) | 12.1
O=C(O)c1cccc(NC(=O)N2C[C@H]3C[C@@H](C2)c2cccc(=O)n2C3)c1 | 11.4
COC(=O)c1ccc(C(C(=O)NC2CCCCC2)N(C(=O)Cc2cccs2)C2CC2)cc1 (centres unmarked) | 4.84
O=C(O)c1ccc2c(c1)ncn2C1CCCCCC1 | 9.43
CCCCN(CCCC)CCCNC(=O)CC1Oc2ccc(C)cc2NC1=O (centres unmarked) | -21.2
COC(=O)Cn1cnc2scc(-c3ccc(C)c(C)c3)c2c1=O | 11.1
C=CCn1c(SCc2c(C)noc2C)nc2cc(C(=O)O)ccc2c1=O | -5.69
CCc1cc2c(SCC(=O)c3ccccc3)ncnc2s1 | 10.8
Cc1ccc(CO/N=C\Cc2snc(Sc3ncc(C(F)(F)F)cc3Cl)c2C#N)cc1 | 11.6
COc1cccc(-n2nnnc2SCC(=O)NCCc2ccc(OC)c(OC)c2)c1 | 7.68
COc1ccc(C2(C(=O)N3CCCC3)CCOCC2)cc1OC | 10.7
Cc1ccc2c(c1)C(O)(CC(=O)c1ccc(C)s1)C(=O)N2 (centres unmarked) | 14.1
O=C1CCC(C(=O)Nc2cccc(Br)c2)N1 (centres unmarked) | 6.95

Structure (SMILES) | hERG current change (%, negative = inhibition) at 1uM [%]
CS(=O)(=O)N1CCN(CCN2C(=O)c3cccc4cccc(c34)C2=O)CC1 | 9.23
COc1ccc(CCNC(=O)CCS(=O)(=O)Cc2ccccc2C)cc1OC | 12.2
CC(C)CNS(=O)(=O)c1ccc(CCC(=O)N2CCN(Cc3ccc4c(c3)OCO4)CC2)cc1 | -13.4
COc1ccccc1S(=O)(=O)Cc1ccc(C(=O)NCC2CCCO2)o1 (centres unmarked) | 6.05
COc1ccc(OCCN2CCN(S(=O)(=O)c3ccccc3C(F)(F)F)CC2)cc1 | 5.15
CN1CCN(C(=O)c2ccc(-n3cccc3)cc2)CC1 | -5.17
Cc1ccc(C(=O)O)cc1NCc1ccncc1 | 13.7
CON(C)S(=O)(=O)c1cccc(C(=O)Oc2ccc(N(C)S(=O)(=O)c3ccccc3)cc2)c1 | 15.2
NC(=S)Nc1c(Cl)cccc1Cl | 14.1
Cc1ccc(S(=O)(=O)N2CCCCC2)cc1NC(=O)CSCC(=O)O | 15.3
CCOC(=O)CCn1c(=S)n(CCC(=O)OCC)c2ccccc21 | -8.49
O=C1/C(=C/c2cccnc2)SC(=S)N1NS(=O)(=O)c1ccccc1 | 11.5
CNC(=O)CSc1nnc(-c2ccco2)n1-c1cccc(OC)c1 | 6.6
CC(O)c1cccc(NC(=O)C2CCCCC2)c1 (centres unmarked) | 23.7
COc1ccc(CCNC(=O)c2cc3c(=O)n4ccccc4nc3n(C3CCCCC3)c2=N)cc1OC | -61.9
COc1cc(OC)cc(C(=O)Nc2nc(CC(=O)NCc3ccccc3OC)cs2)c1 | 8.8
COc1ccc(C(=O)NC2CCCCC2)cc1S(=O)(=O)N1CCCC1 | 0.624
CC1C=CCC2C(=O)N(c3cccc(C(=O)N4CCN(c5ccc(F)cc5)CC4)c3)C(=O)C12 (centres unmarked) | 2.03
Cc1ccc(C(=O)NNS(=O)(=O)c2ccc(F)cc2)cc1 | 9.21
Cc1ccc(NC(=O)CN2C(=O)COc3ccc(S(=O)(=O)N4CCCC4)cc32)cc1C | 12.3
CCOc1ccc2nc3c(cc2c1)CN(CCOC)C(=NC)S3.Cl | 11.5
Cc1cc(C)cc(N(CCC(=O)O)S(=O)(=O)c2ccc(Cl)cc2)c1 | 7.38
CSc1ccccc1C(=O)Nc1cccc(N(C)S(C)(=O)=O)c1 | 7.96

Structure (SMILES) | hERG current change (%, negative = inhibition) at 1uM [%]
CC(C)(C)OC(=O)CN1C(=O)NC2(CCCc3ccccc32)C1=O (centres unmarked) | 8.18
CC(C)C(=O)Nc1ccc(-c2nc3cccnc3o2)cc1 | 16.5
Cc1ccsc1C(=O)NCCc1c[nH]c2ccccc12 | 11.2
Cc1cc(/C=C2\C(=O)NC(=O)N(c3cccc(F)c3)C2=O)c(C)n1-c1ccc(C(=O)O)c(Cl)c1 | 12.8
Cc1ccc(C)c2c1cc(C)c1nnc(SCC(=O)N3CCCc4ccccc43)n12 | 0.287
CC1CCCCN1CCCNC(=O)C1CCN(c2nc3ccccc3o2)CC1 (centres unmarked) | 14.5
CCC(C)C1Nc2ccc(C(=O)NCc3ccc4c(c3)OCO4)cc2NC1=O (centres unmarked) | 7.33
CCCS(=O)(=O)NCCc1cc2c(OC)ccc(OC)c2[nH]c1=O | 5.46
C#CCNC(=O)c1cccn1-c1ncc(C(F)(F)F)cc1Cl | 6.06
Cc1ccc(CCNC(=O)C2CCN(S(=O)(=O)c3ccc4c(c3)NC(=O)C(C)S4)CC2)cc1 (centres unmarked) | 13
CCCCCN(C(=O)NC(=O)Nn1cnnc1)S(C)(=O)=O | 5.49
O=C1C2C3C=CC(CC3)C2C(=O)N1/N=C/c1c[nH]c2ccccc12 (centres unmarked) | 14
COc1ccc(CCC(=O)NCc2ccc3c(c2)OCO3)cc1 | 0.183
CN1C(=O)/C(=C/c2ccccc2OCc2ccc(F)cc2)N(C)C1=S | 10.6
CC(NC(=O)Cc1ccc(Br)cc1)c1ccccc1 (centres unmarked) | 11.7
COc1ccc(CC(C(=O)Nc2cc(C)ccc2C)/C(N)=N/O)cc1 (centres unmarked) | 12.8
Cc1ccccc1-c1nc(CN2CCC(C(=O)NCC3CCCO3)CC2)c(C)o1 (centres unmarked) | -15
Cc1ccc(N(C(=O)c2cnccn2)C(C(=O)NC2CCCCC2)c2ccc(O)cc2)cc1 (centres unmarked) | -0.364
COc1ccccc1CNC(=O)COC(=O)COc1ccccc1F | -4.63
O=C(O)CNC(=O)CC1S/C(=N/N=C2/NC(=O)CS2)NC1=O (centres unmarked) | 17.2
CCOc1ccc(-n2c(C)c(C(C)=O)c3cc(OCC(N)=O)ccc32)cc1 | 8.52
O=C(CN1C(=O)C(=O)c2ccccc21)NC1CCCCC1 | 9.98
Cn1cc(Br)c(-c2cccc(N3C(=O)CC(C)(C)CC3=O)c2)n1 | 9.52

Structure (SMILES) | hERG current change (%, negative = inhibition) at 1uM [%]
COC(=O)[C@H](Cc1ccccc1)NC(=O)N1CCCCC1 | 10.5
O=C(COc1cc(Cl)c(Cl)cc1Cl)Nc1cccc(O)c1 | 11.3
Fc1ccc(Cn2cnc3ccccc32)cc1 | 4.34
CC(C)c1nc(C(=O)N2CCc3c([nH]c4ccccc34)C2c2ccccn2)cs1 (centres unmarked) | 9.2
O=C(/C(C=Nc1cc2c(oc1=O)CCCC2=O)=C(\O)c1ccccc1)c1ccccc1 | 20
COc1ccc(C(CC(=O)NCc2ccco2)c2ccc(F)cc2)cc1 (centres unmarked) | 3.89
O=C(CC(=O)c1ccccc1)Nc1cccnc1Cl | 8.69
CN(Cc1cc2ccccc2[nH]c1=O)S(=O)(=O)c1ccccc1 | 11.6
O=c1[nH]n(CCO)c(=O)c2cccnc12 | 11.5
O=c1c(-c2nc3ccccc3s2)cccn1Cc1ccccc1 | 0.851
Cc1cc(-n2nc(C)cc2C)n2ncc(-c3ccccc3)c2n1 | 17.2
CCc1ccccc1NC(=O)N1C2CCCC1CC(NC(=O)C(C)(C)C)C2 (centres unmarked) | -12
CCCCN(CCCNc1ncnc2nc[nH]c12)c1ccccc1 | 7.39
CCN(CC(=O)NC(=O)NC1CCCCC1)Cc1nc2ccccc2c(=O)[nH]1 | 8.36
COc1ccc(C(=O)NC2CCN(C(=S)Nc3ccc(C)c(C)c3)CC2)cc1 | 5.23
COc1ccc(/C=C(\NC(=O)c2ccccc2)C(=O)N/N=C/c2ccncc2)cc1 | 10.4
CCN(CC)c1ccc(/C=N/N2CCN(Cc3ccccc3Cl)CC2)cc1 | 15.6
CN(CP(=O)(O)C(O)c1ccccc1)S(C)(=O)=O (centres unmarked) | 4.97
Cc1cc(C)c2oc(C(=O)N(Cc3ccccc3)c3ccccn3)cc(=O)c2c1 | 6.86
Cc1ccc(SCC(=O)NCCc2ccccc2)cc1 | 19
